PubChem BioAssay AID1030 (National Center for Advancing Translational Sciences (NCATS), 2008)
The whole screen tested about 220,000 compounds, of which about 16,000 (7.3%) were called active. Inconclusive means that the source gave no clear call. Such entries were picked first, then a sample of the others. The call rests on the fitted dose curve; in most records, active means well fitted inhibition curve with a large enough effect (not every such curve was filed as active); inconclusive means small, poorly fitted or top-dose-only effect, or another doubt; inactive means no such curve, though single readings can be large or run the other way. Potencies beside an inconclusive call are fits to weak or partial responses and may not hold up.

Target: Aldehyde dehydrogenase 1A1 (Homo sapiens) (UniProt P00352)
Experiment: qHTS Assay for Inhibitors of Aldehyde Dehydrogenase 1 (ALDH1A1);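 on activity, negative = inhibition: plate controls were no enzyme wells and a reference inhibitor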
Conditions: Purified ALDH1A1, NADH fluorescence, propionaldehyde substrate; series mostly up to 75.3 µM; activity, negative = inhibition: at the top concentration
Potency means the concentration at half of the fitted maximal effect; tags describe the fitted curve by direction and shape.

Chain of UniProt P00352 (P00352 whole entry, looked up): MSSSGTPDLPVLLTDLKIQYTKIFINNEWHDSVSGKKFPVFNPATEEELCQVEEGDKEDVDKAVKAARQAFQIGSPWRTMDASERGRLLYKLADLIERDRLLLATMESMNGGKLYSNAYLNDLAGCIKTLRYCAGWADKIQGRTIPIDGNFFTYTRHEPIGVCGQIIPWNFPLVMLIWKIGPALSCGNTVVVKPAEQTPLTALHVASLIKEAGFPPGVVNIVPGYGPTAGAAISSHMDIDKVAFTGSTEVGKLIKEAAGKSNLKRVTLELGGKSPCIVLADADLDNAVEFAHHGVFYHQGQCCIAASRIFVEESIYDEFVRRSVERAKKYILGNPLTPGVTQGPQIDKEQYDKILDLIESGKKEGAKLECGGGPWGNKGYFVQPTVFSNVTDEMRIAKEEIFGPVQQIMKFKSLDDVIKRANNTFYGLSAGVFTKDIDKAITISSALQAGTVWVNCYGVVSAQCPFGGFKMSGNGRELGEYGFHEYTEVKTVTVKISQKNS

activity, negative = inhibition, inactive:
O=c1c2ccccc2c2ccccc2c(=O)n1-c1cc2c3ccccc3ccc2c2ccccc12 0.211% [at 13.5 µM], CCCC(=O)Nc1nnc(COC)s1 1.01%, O=C(Cn1cncn1)c1ccc(F)cc1F 0.287%, S=C(Nc1ccccc1)c1ccccn1 -10.1%, Cc1ccc(NC(=O)CCNC(=O)c2ccccc2Cl)cc1S(=O)(=O)N(C)C 3.13%, COc1ccccc1OCc1nnc(SCC(=O)Nc2ccc(C)cc2)n1C -8.25%, CCN(CC)C(=O)c1sc(NC(=O)c2cccs2)c(C#N)c1C 1.53%, CC1(C)CC[C@]2(C(=O)O)CC[C@]3(C)C(=CCC4[C@@]5(C)CC[C@H](O)C(C)(C)C5[C@H](O)C[C@]43C)C2C1 (stereo partly specified) -0.428%, O=C(O)CCCSc1ccccc1 21.9% [at 13.5 µM], COc1cc(-c2csc(C)n2)ccc1O -0.245%, Cc1cc(C)cc(Oc2ccccc2/C=N\O)c1 7.38%, C/C(CC(=O)NC1CCCCC1)=N\NC(=O)c1ccccn1 4.22%, O=C(Nc1ccc(F)cc1)N1CCc2ccccc2C1 -9.43%, COC(=O)CSc1nnc(CNC(=O)c2ccc(OC)c(OC)c2)n1C -0.365%, Cc1ccc(C)c(N2CCN(C(=O)C3CCN(S(=O)(=O)c4cccc5nsnc45)CC3)CC2)c1 -0.705%, CN(C)c1ccc(C(CNS(=O)(=O)c2ccc3ccccc3c2)c2c[nH]c3ccccc23)cc1 (stereo unspecified) -8.76%, CCOC(=O)C1=C(c2ccccc2)O/C(=C(/C#N)C(F)(F)F)S1 4.41%, O=C1NCC2=C1C(c1ccccc1)Nc1ccccc1N2 (stereo unspecified) -1.44%, COc1ccc(N(CC(=O)Nc2c(C)cccc2C)S(=O)(=O)c2ccccc2[N+](=O)[O-])c(OC)c1 -6.28%, ClC/C=C/CCl -5.16%, C/C=C/COc1nc2c(c(=O)n(C)c(=O)n2C)n1C 2.95%, NC1=NC(=O)/C(=C/c2cn(CCC(=O)O)nc2-c2ccc(Cl)cc2)S1 25.1%

Potency, active:
Cc1noc(/C=C/N(C)C)c1S(=O)(=O)N1CCCC(C(=O)NC(C)c2ccccc2)C1 (stereo unspecified) 7.51 µM, COC(=O)c1ccc(C2/C(=C(/O)c3ccc(OC)cc3)C(=O)C(=O)N2Cc2ccco2)cc1 (stereo unspecified) 17.8 µM, Cc1noc(C)c1CS(=O)(=O)c1ccc([N+](=O)[O-])cc1 31.6 µM, CC[n+]1c(/C=C2/C=C(C)CC(C)(C)C2)sc2ccc(OC)cc21 8.91 µM, Cc1cc(C)c(NC(=O)C2CCCN2CCOC(=O)c2cccc([N+](=O)[O-])c2)c(C)c1 (stereo unspecified) 39.8 µM, Cc1ccc(C(=O)CSc2nnc(CNc3nc(-c4ccccc4)cs3)n2C)cc1 14.1 µM, CSc1ccccc1-c1n[nH]c(=S)o1 22.4 µM, COc1ccc(/C=C2/N=C(SC3CCOC3=O)N(c3cccc(OC)c3)C2=O)cc1 (stereo unspecified) 3.55 µM, CCCCC(=O)N/N=C/c1ccc(N2CCOCC2)c([N+](=O)[O-])c1 11.2 µM, CCOC(=O)C1=C(C)C(c2cccc(Oc3ccccc3)c2)NC(=S)N1 (stereo unspecified) 0.562 µM

Potency, inconclusive:
CC(=O)c1nn(-c2cccc(Br)c2)cc1C(=O)c1cccc2ccccc12 25.1 µM [inhibitor, partial curve], COc1ccc(C2SCCN2S(=O)(=O)c2ccccc2)cc1OC (stereo unspecified) 1 µM [inhibitor, full curve], CCN(CC)c1ccc(/C=N/NC(=O)c2cccc(N3CCCC3=O)c2)cc1 39.8 µM [inhibitor, single point], CCn1nnnc1SCC(=O)Nc1ccc2c(c1)OCCO2 25.1 µM [inhibitor, partial curve], Cc1sc2nc(C3CC3)nc(NCCNS(=O)(=O)c3ccccc3)c2c1C 25.1 µM [inhibitor, single point], CC(c1ccccc1)N(CCC(c1ccccc1)C1CCOC(C)(C)C1)C(=O)c1ccco1 (stereo unspecified) 39.8 µM [inhibitor, single point], COc1ccc(N2C3=C(CC4=C2CC(C)(C)CC4=O)C(=O)CC(C)(C)C3)cc1 25.1 µM [inhibitor, partial curve], O=C(NCc1ccco1)c1cccn2c(=O)c3c4c(sc3nc12)CCCC4 28.2 µM [inhibitor, single point], COc1ccc(Br)cc1CN1CCN(C(=O)c2ccc(OC)c(OC)c2)CC1 39.8 µM [inhibitor, single point], COc1ccc(CCNC(=O)CC2Oc3ccc(Cl)cc3NC2=O)cc1OC (stereo unspecified) 39.8 µM [inhibitor, single point], COC(=O)CSCC(=O)Nc1nnc(-c2cccc(C)c2)s1 25.1 µM [inhibitor, single point], OC[C@@H]1[C@@H](c2ccccc2)C(c2cccc(Cl)c2)=NN1c1ccccc1 31.6 µM [inhibitor, partial curve], COc1cccc(CC(NC(C)=O)C(=O)NC2CCN(c3nc(C)cc(C)c3C#N)CC2)c1OC (stereo unspecified) 23.8 µM [inhibitor, partial curve], CC(/C=N/NC(=O)c1cnccn1)=C\c1ccco1 25.1 µM [inhibitor, single point], CC(C)c1nnc(NC(=O)CCC(=O)Nc2ccc3cn[nH]c3c2)s1 39.8 µM [inhibitor, single point], CN(C)/C=C/C(=O)c1ccc(-n2cccc2)cc1 22.4 µM [inhibitor, partial curve], COc1ccc(N=C2S/C(=C\c3cccs3)C(=O)N2CC(C)C)cc1 11.2 µM [inhibitor, partial curve], CN(C1=C(NC(=O)c2ccc(Cl)cc2)C(=O)c2ccccc2C1=O)c1ccccc1 11.2 µM [inhibitor, partial curve], O=C(COC(=O)c1cccc2c1C(=O)c1ccccc1C2=O)NC1CCCCC1 7.94 µM [inhibitor, full curve]
